Assay results published in PubChem BioAssay AID504832 (National Center for Advancing Translational Sciences (NCATS), 2011).
“And” between values parts separate entries of the source, which are not always exact repeats. Equal values may be shown once. Among all 310,000 compounds or so, about 18,000 (5.8%) were called active. Inconclusive means that the source gave no clear call. Such entries were picked first, then a sample of the others. Calls come from the whole dose curve; as a rule, active = well fitted inhibition curve with a large enough effect; inconclusive = small, poorly fitted or top-dose-only effect, or another doubt; inactive = no such curve, though single readings can be large or run the other way. No potency is given beside an inconclusive call; the fits are too rough.

Assay: Primary qHTS for delayed death inhibitors of the malarial parasite plastid, 48 hour incubation
Settings: P. falciparum luciferase growth in erythrocytes; series mostly up to 28.7 µM; activity change, negative = inhibition: at the top concentration
Method in brief: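 Parasite viability was followed by luminescence of a genomically integrated firefly luciferase. Cultures held 0.1% parasitemia at 2% hematocrit (final), incubated under 5% CO2 at 37 C.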
% is set by controls: 0 for no effect and ±100 for the full control effect; potency is the fitted concentration of half-maximal effect; tags give direction and shape of the fitted curve.

Row | Compound | activity change, negative = inhibition | Potency
1 | COc1ccc(CCNc2nc(-c3ccc(F)cc3)c(CC(=O)O)s2)cc1OC | inactive: -10.4% | –
2 | CCOc1ccc(N(CC(=O)N2CCN(c3ccccc3OC)CC2)S(=O)(=O)c2ccc(C)cc2)cc1 | – | inconclusive [inhibitor, single point]
3 | NC(=O)c1ccccc1OCC(=O)N1CCC(Cc2ccccc2)CC1 | – | inconclusive [inhibitor, single point]
4 | O=[N+]([O-])c1ccc(CSC2=NCCN2)cc1 | inactive: 30.4% | –
5 | COc1ccc(N(C)C(=O)c2sc(Cl)nc2C)cc1 | – | inconclusive [inhibitor, single point]
6 | C#CCNC(=O)C1=C[C@H](C(C)(C)C)C[C@H](OCc2ccc(CO)cc2)O1 | – | inconclusive [inhibitor, partial curve, poor fit]
7 | COc1cccc(CNS(=O)(=O)c2ccc(S(=O)(=O)N3CCCC3)cc2)c1 | – | inconclusive [inhibitor, single point]
8 | COc1ccc([C@]23Cc4ccccc4C(O2)c2c(cc(C)n(Cc4ccccc4)c2=O)O3)cc1 | – | inconclusive [inhibitor, full curve, poor fit]
9 | OCCN1CCN(CC/C=C2/c3ccccc3Sc3ccc(C(F)(F)F)cc32)CC1 | – | active: 9.53 µM and active: 6.57 µM
10 | COc1ccc(NC(=O)c2ccc(Cl)nc2)cc1S(=O)(=O)N1CCCCC1 | – | inconclusive [inhibitor, single point]
11 | O=C(c1ccc(Cl)nc1)N1CCN(S(=O)(=O)c2ccc3c(c2)OCCO3)CC1 | – | inconclusive [inhibitor, single point]
12 | COc1ccc(S(=O)(=O)N2CCOCC2)cc1NC(=O)Cc1ccc2c(c1)OCCO2 | – | inconclusive [inhibitor, single point]
13 | CCOC(=O)C1(CCOc2ccccc2)CCN(CC(O)CO)CC1 (configuration not stated) | – | inconclusive [inhibitor, partial curve, poor fit]
14 | COc1ccc2c(c1)CCc1c-2n[nH]c1C(=O)O | inactive: 14.7% | –
15 | CC(=O)c1ccc(S(=O)(=O)N2CCN(C(=O)c3ccc(N)c([N+](=O)[O-])c3)CC2)cc1 | – | inconclusive [inhibitor, partial curve]
16 | COc1ccc([C@]23Cc4cc(C#N)ccc4C(O2)c2c(c4ccc(OC)cc4oc2=O)O3)cc1 | – | inconclusive [inhibitor, single point]
17 | O=[N+]([O-])c1ccc(O)c(C=Nc2ccc3oc(Cc4ccc(Cl)cc4)nc3c2)c1 | – | inconclusive [inhibitor, single point]
